# From PubChem BioAssay AID2147 (National Center for Advancing Translational Sciences (NCATS), 2009)
# Screen size: about 230,000 compounds; about 3,600 (1.6%) were called active. This list was built around the results that the source calls inconclusive (neither active nor inactive); the mix of calls is not that of the screen. Calls follow the shape of the dose curve; as a rule, active = well fitted inhibition curve with a large enough effect (not every such curve was filed as active); inconclusive = small, poorly fitted or top-dose-only effect, or another doubt; inactive = no such curve, though single readings can be large or run the other way. Where the call is inconclusive, the potency comes from a doubtful curve fit.
# Target: Lysine-specific demethylase 4E (Homo sapiens) (UniProt B2RXH2)
# Test: qHTS Assay for Inhibitors of Human Jumonji Domain Containing 2E (JMJD2E)
# Details: JMJD2E catalytic domain, FDH-coupled NADH fluorescence (FDH is formaldehyde dehydrogenase); series mostly up to 57.1 µM; activity change, negative = inhibition: at the top concentration
# Also: nearly all actives have a fitted effect of over 50% in size.
# 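For activity change, negative = inhibition in this document: 0% = wells with enzyme and -100% = buffer wells without enzyme.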
# Potency is read from the fitted curve at half-maximal effect; tags tell the direction and shape of the fitted curve.
# Sequence of UniProt B2RXH2 (B2RXH2 whole entry, looked up, the tested form may be a part): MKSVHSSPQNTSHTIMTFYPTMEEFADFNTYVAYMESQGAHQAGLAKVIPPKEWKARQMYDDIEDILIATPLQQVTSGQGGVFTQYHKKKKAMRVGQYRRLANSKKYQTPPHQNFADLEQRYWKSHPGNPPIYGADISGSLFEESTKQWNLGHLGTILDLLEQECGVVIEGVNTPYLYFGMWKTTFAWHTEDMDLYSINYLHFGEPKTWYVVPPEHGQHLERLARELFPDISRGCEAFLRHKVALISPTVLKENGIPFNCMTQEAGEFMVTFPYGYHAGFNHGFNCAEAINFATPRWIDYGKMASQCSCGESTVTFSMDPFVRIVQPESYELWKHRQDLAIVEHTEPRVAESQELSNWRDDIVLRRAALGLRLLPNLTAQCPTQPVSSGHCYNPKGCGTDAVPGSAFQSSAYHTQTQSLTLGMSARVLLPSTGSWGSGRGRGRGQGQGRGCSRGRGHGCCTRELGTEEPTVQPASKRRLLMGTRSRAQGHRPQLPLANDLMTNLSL
Structure (SMILES),Potency,"activity change, negative = inhibition"
COC(=O)c1ccccc1NC(=O)N1CCN(S(C)(=O)=O)CC1,"inconclusive: 31.6 µM [inhibitor, partial curve]",
COc1cc(C(Nc2ccc3c(c2)OCO3)C(=O)NC2CCCCC2)cc(OC)c1OC (centres undefined),active: 28.2 µM,
CCCCOc1ccc(-c2cc(C(=O)NNC(=S)NCC)c3ccccc3n2)cc1,"inconclusive: 35.5 µM [inhibitor, partial curve]",
O=C(NN=C1CCCC1)c1cc(-c2ccc(F)cc2)nc2ccccc12,"inconclusive: 25.1 µM [inhibitor, partial curve]",
COCCn1c(=O)[nH]c2cc(C(=O)NCC3CCCO3)ccc2c1=O (centres undefined),"inconclusive: 28.2 µM [inhibitor, partial curve]",
O=C(COc1ccccc1[N+](=O)[O-])NNC(=O)Nc1cccc2ccccc12,"inconclusive: 31.6 µM [inhibitor, partial curve]",
CCCCC(=O)Nc1ccc(N2CCN(S(C)(=O)=O)CC2)cc1,"inconclusive: 3.16 µM [inhibitor, partial curve]",
Cc1c(C(=O)N2CCCCC2)sc(N)c1C#N,,inactive: -1.74%
S=c1[nH]nc(Cc2ccccc2)n1-c1ccccc1,,inactive: 2.89%
COc1cc(/C=C/C(=O)OCc2c(C)noc2C)ccc1OC(F)F,"inconclusive: 25.1 µM [inhibitor, single point]",
CCCC(=O)c1ccc(N2CCN(S(=O)(=O)c3ccccc3)CC2)c(F)c1,,inactive: -7.47%
Cc1ccc[n+](CC(=O)Nc2nc3ccccc3s2)c1,,inactive: -2.71%
O=c1[nH]c(-c2ccccc2O)nc2ccccc12,"inconclusive: 35.5 µM [inhibitor, single point]",
S=C(c1ccc(Cl)cc1)N1CCN(Cc2ccccc2)CC1,"inconclusive: 28.2 µM [inhibitor, single point]",
CC(=O)N[C@@H](Cc1c[nH]c2ccccc12)C(=O)OCc1cc(C(F)(F)F)cc(C(F)(F)F)c1,"inconclusive: 39.8 µM [inhibitor, single point]",
CC(C)Cn1c(=S)[nH]c2cc(Cl)ccc21,,inactive: -9.19%
CC(C)COc1cccc(C(=O)NC(=S)Nc2cccc(NC(=O)c3ccccc3Cl)c2)c1,,inactive: 5.5%
CC1CCN(C(=O)COc2cccc3c2CCN(Cc2ccccc2)C3=O)CC1,,inactive: 5.46%
O=c1[nH]c(Cc2ccc(F)cc2)nc2scc(-c3ccc(F)cc3)c12,,inactive: 7.05%
O=C(CN1C(=O)NC2(CCCCC2)C1=O)N1CCN(S(=O)(=O)c2ccccc2)CC1,,inactive: -0.632%
COc1ccc(-c2ncc3ccccn23)cc1OC,"inconclusive: 31.6 µM [inhibitor, partial curve]",
CC1=C(C(=O)Nc2ccccc2)C(c2ccco2)C(C#N)=C(SCc2ccccc2)N1 (centres undefined),"inconclusive: 39.8 µM [inhibitor, single point]",
COc1ccc(-c2cc3nc(-c4ccccc4)cc(N4CCCC(O)C4)n3n2)cc1 (centres undefined),"inconclusive: 31.6 µM [inhibitor, partial curve]",
c1nnc(NC2=NCCC2)s1,,inactive: 2.41%
O=C(O)c1ccc2cccc(Cl)c2c1O,"inconclusive: 25.1 µM [inhibitor, partial curve]",

Structure (SMILES),Potency,"activity change, negative = inhibition"
O=C(c1ccc(=O)oc1)N1CCCc2ccccc21,active: 14.1 µM,
CCN(CC)c1ccc(NC(=O)Nc2cccc(C(C)=O)c2)cc1,,inactive: 2.99%
CCOC(=O)c1c(NC(=O)c2nn(CC)cc2Br)sc2c1CCCCC2,"inconclusive: 31.6 µM [inhibitor, partial curve]",
CNC(=O)COC(=O)c1cc(SC)ccc1Cl,"inconclusive: 28.2 µM [inhibitor, partial curve]",
COc1ccc(S(=O)(=O)N2CCC(C(=O)N3CCCCCC3)CC2)cc1,,inactive: 5.75%
COc1ccc(-c2nc(-c3ccc(NC(=O)c4ccc(Br)o4)cc3)no2)cc1OC,"inconclusive: 39.8 µM [inhibitor, single point]",
CNC(=O)CSc1nc2nc(C)cc(C)n2n1,,inactive: -6.17%
COC(=O)c1ccc(COC(=O)CCc2nc(-c3ccccc3)c(-c3ccccc3)o2)cc1,"inconclusive: 31.6 µM [inhibitor, single point]",
Cc1ccc2c(c1)Sc1c(ccc3ccccc13)N2,,inactive: -14.4%
CCN(CC)c1ccc2cc(-c3nnc(-c4ccncc4)o3)c(=O)oc2c1,"inconclusive: 31.6 µM [inhibitor, partial curve]",
O=C(O)/C=C/C(=O)Nc1cccc2cccnc12,"inconclusive: 39.8 µM [inhibitor, single point]",
Cc1nnc(N2C(=O)C(O)=C(C(=O)c3ccco3)C2c2ccc(F)cc2)s1 (centres undefined),,inactive: 3.69%
Cn1nnnc1SCC1=C(C(=O)O)N2C(=O)C(NC(=O)C(O)c3ccccc3)C2SC1 (centres undefined),"inconclusive: 20 µM [inhibitor, partial curve]",
Cc1ccc2[nH]c(O)c(N=NC(=O)c3ccc(NS(=O)(=O)c4cccs4)cc3)c2c1,,inactive: -1.62%
CCCCCC(=O)CC[C@@H]1[C@@H](C/C=C\CCCC(=O)O)[C@@H](O)C[C@H]1O,,inactive: 2.5%
O=C(/C=C/NNC(=O)c1ccc(Cl)cc1)c1ccccc1,,inactive: -6.11%
Cn1cccc1/C=C1\SC(=S)N(NC(=O)c2ccccc2)C1=O,,inactive: -10.8%
O=C(NC(Cc1c[nH]c2ccccc12)c1nnc2n1CCCCC2)c1ccccc1Cl (centres undefined),,inactive: 3.11%
Cc1cc(-c2cc(C(=O)O)c3ccccc3n2)c(C)s1,"inconclusive: 35.5 µM [inhibitor, single point]",
Cc1ccc(S(=O)(=O)N[C@@H](Cc2ccccc2)C(=O)CCl)cc1,inactive,
N#C/C=C(/N)N1CCN(c2ccc(Cl)c(Cl)c2)CC1,"inconclusive: 39.8 µM [inhibitor, single point]",
O=C1c2ccccc2C(=O)N1CC(=O)N1c2ccccc2CCc2ccccc21,"inconclusive: 39.8 µM [inhibitor, single point]",
O=C1c2ccccc2NC(c2ccc(-c3cccc(Cl)c3)o2)N1O (centres undefined),"inconclusive: 35.5 µM [inhibitor, single point]",
COc1cccc(/C=C/C(=O)OC(C)C(=O)Nc2c(C)n(C)n(-c3ccccc3)c2=O)c1 (centres undefined),"inconclusive: 28.2 µM [inhibitor, partial curve]",
C#CCOCCOCCOCCNc1nc(N2CCN(C(=O)[C@H](CCC(=O)O)n3cc(C(N)CO)nn3)CC2)nc(N2CCN(C(=O)[C@H](Cc3cc4ccccc4[nH]3)n3cc(C(N)[C@H](C)CC)nn3)CC2)n1 (some centres undefined),,inactive: -8.92%

Structure (SMILES),Potency,"activity change, negative = inhibition"
O=C(Nc1cnc2sc3c(n2c1=O)CCCC3)c1ccc(F)cc1,"inconclusive: 35.5 µM [inhibitor, single point]",
CC(/C=C/c1ccc(C)o1)=C\C(=O)O,"inconclusive: 39.8 µM [inhibitor, single point]",
N#CC1=C(N)OC2=C(CN(Cc3ccccc3)C/C2=C\c2cccnc2)C1c1cccnc1 (centres undefined),"inconclusive: 25.1 µM [inhibitor, single point]",
COc1ccc(NC(=S)Nc2ccc3cn[nH]c3c2)cc1,"inconclusive: 3.16 µM [inhibitor, full curve]",
O=c1c(Cl)c(O)c2cccc3c4ccccc4n1c23,"inconclusive: 31.6 µM [inhibitor, partial curve]",
Cc1ccc(C(CC(=O)O)Nc2nc(N3CCOCC3)nc(N3CCOCC3)n2)cc1 (centres undefined),"inconclusive: 39.8 µM [inhibitor, single point]",
Cn1cc(/C=N/Nc2ccccc2)c2ccccc21,"inconclusive: 22.4 µM [inhibitor, single point]",
Cc1ccc2nc3cc([N+](=O)[O-])cc([N+](=O)[O-])c3cc2c1,,inactive: 4.93%
CCn1c(-c2cc(-c3ccc(C)cc3)nc3ccccc23)n[nH]c1=S,,inactive: -13.1%
Cc1ccc(/C=N/NC(=S)NCCc2ccccc2)s1,"inconclusive: 35.5 µM [inhibitor, single point]",
CC(=O)N/N=C/c1ccc(OCCOc2ccc(Br)cc2)cc1,,inactive: -5.43%
CCn1c(=N)c(S(=O)(=O)c2ccccc2)cc2c(=O)n3ccccc3nc21,"inconclusive: 14.1 µM [inhibitor, partial curve]",
O=C(CCCN1C(=O)/C(=C/c2ccco2)SC1=S)Nc1cccc(C(=O)O)c1,"inconclusive: 25.1 µM [inhibitor, single point]",
Cc1ccc2c(SCC(=O)NCc3ccco3)nc(-c3ccc(F)cc3)nc2c1,,inactive: 8.8%
COc1ccc(-c2cc(C(=O)Nc3ccc(S(=O)(=O)Nc4onc(C)c4C)cc3)c3ccccc3n2)cc1,"inconclusive: 31.6 µM [inhibitor, partial curve]",
O=C(O)c1ccccc1SC1CC(=O)N(C2CCCCC2)C1=O (centres undefined),,inactive: -5.49%
CCOC(=O)c1csc(NC(=O)c2cc3ccccc3o2)n1,"inconclusive: 35.5 µM [inhibitor, single point]",
CCC(C)NC(=O)c1c(N)n(/N=C/c2ccccn2)c2nc3ccccc3nc12 (centres undefined),"inconclusive: 4.47 µM [inhibitor, full curve]",
Cc1cc(=O)[nH]c(-c2cccnc2)n1,,inactive: 3.46%
COc1cccc(CN2CCN(C(=O)c3ccc(-c4ccccc4)cc3)CC2)c1,"inconclusive: 25.1 µM [inhibitor, single point]",
O=[N+]([O-])c1ccccc1Oc1ncccc1[N+](=O)[O-],,inactive: 13.6%
O=C(O)CCc1ccc(-c2ccc(Cl)cc2)n1NC(=O)c1ccc(O)cc1,,inactive: -5.87%
O=C(N/N=C/c1ccccn1)C(=O)N1CCCCCC1,"inconclusive: 35.5 µM [inhibitor, single point]",
Cc1cc(C)c2c(n1)nn1c(C)c(CCC(=O)NCc3ccco3)c(C)nc21,"inconclusive: 31.6 µM [inhibitor, partial curve]",
